# PMC4336329 (PLoS ONE, 2015)
# The whole screen tested about 310,000 compounds, of which about 14,000 (4.5%) showed an effect of 50% or more. The effect is printed as a negative number. The list shows a part of the results.
# Target: human ether-à-go-go-related gene (hERG) potassium channel (human, UniProt Q12809)
# Test: primary screen, population patch clamp on CHO cells stably expressing hERG
# 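Further: peak tail current of the secondary pulse compared with the same well before compound.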
# Chain of human ether-à-go-go-related gene (hERG) potassium channel (Q12809 whole entry, looked up): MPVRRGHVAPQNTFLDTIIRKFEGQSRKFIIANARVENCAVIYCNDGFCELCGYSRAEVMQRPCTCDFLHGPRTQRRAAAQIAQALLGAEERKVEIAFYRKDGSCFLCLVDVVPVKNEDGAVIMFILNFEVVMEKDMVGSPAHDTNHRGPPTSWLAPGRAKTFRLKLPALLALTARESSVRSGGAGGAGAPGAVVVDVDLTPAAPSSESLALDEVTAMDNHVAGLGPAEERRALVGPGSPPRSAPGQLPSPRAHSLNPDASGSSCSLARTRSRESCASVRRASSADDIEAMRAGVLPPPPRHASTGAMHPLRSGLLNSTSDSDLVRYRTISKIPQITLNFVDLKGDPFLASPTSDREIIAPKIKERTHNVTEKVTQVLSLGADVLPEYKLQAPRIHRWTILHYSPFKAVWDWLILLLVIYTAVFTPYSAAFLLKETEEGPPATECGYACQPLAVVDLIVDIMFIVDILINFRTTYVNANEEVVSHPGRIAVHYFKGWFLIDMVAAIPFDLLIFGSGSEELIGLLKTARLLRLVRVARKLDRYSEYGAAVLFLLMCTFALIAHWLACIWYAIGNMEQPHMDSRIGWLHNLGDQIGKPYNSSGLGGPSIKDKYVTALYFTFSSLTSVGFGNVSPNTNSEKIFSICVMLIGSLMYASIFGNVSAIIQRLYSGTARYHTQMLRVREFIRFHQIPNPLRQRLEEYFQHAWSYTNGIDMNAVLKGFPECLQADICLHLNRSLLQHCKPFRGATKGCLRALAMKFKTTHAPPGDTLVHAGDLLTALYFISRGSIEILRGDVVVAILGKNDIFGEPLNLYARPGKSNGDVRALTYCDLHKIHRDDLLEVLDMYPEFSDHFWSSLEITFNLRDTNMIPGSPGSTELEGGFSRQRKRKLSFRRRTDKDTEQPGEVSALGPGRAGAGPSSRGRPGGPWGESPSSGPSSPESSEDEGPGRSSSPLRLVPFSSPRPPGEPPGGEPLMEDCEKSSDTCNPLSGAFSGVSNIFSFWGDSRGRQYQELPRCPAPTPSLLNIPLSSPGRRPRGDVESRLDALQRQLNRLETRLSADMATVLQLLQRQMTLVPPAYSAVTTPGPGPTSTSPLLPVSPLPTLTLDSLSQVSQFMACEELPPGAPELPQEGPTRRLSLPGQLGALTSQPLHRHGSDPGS
row,Structure (SMILES),"hERG current change (%, negative = inhibition) at 10uM [%]"
1,C=CCSc1nc(N(CC)CC)c2sccc2n1,-12.4
2,O=C(c1cccc(S(=O)(=O)N2CCOCC2)c1)N(Cc1ccc(F)cc1)Cc1ccco1,-88.4
3,O=C1CCCc2c1cc(C(=O)NCc1ccco1)c(=O)n2-c1ccc(Cl)cc1,-69.3
4,Cc1ccsc1CNC1CCCCC1,9.94
5,CN(C)CCNC(=O)c1onc(CSc2nc3ccccc3[nH]2)c1C(=O)NCCN(C)C,-0.951
6,CCCCC(=O)NC(=S)Nc1cc(C(=O)O)ccc1Cl,11.2
7,O=C(Nc1ccc2oc(-c3ccccc3)nc2c1)c1cccs1,6
8,Cc1noc(C)c1COc1ccccc1C(=O)NC1CCC(C)CC1 (centres unmarked),0.497
9,COc1ccc(C(=O)Cc2ccc3c(c2)OCO3)c(O)c1,-9.04
10,Cc1ccc(NC(=O)c2cnc(SCC(=O)c3ccccc3)n(C)c2=O)cc1,13.7
11,CCOc1ccc(/C=N/NC(=O)c2ccccc2C)cc1CN1CC2CC(C1)c1cccc(=O)n1C2 (centres unmarked),-26.8
12,CCCOc1ccc(/C(O)=C2/C(=O)C(=O)N(c3ccccn3)C2c2ccc(OC)cc2)cc1C (centres unmarked),22.7
13,C[N+](C)(C)CCOC(=O)CCC(=O)OCC[N+](C)(C)C.O.[Cl-],7.47
14,Cc1c(NC(=O)Nc2ccc(Cl)c(Cl)c2)c(=O)n(-c2ccccc2)n1C,-7.58
15,COc1ccc(-c2cc3c(=O)n(CC(=O)NCc4cccnc4)nc(C)n3n2)cc1,-3.95
16,O=C(NCCc1ccccc1)C1COc2ccccc2O1 (centres unmarked),1.55
17,Cc1ccccc1NC(=O)Nc1ccccc1Br,13.7
18,CC1CCN(C(=O)c2ccc(NC(=O)c3cccs3)cc2)CC1,-1.19
19,Cc1cc2nccc(-c3cccnc3)n2n1,4.69

row,Structure (SMILES),"hERG current change (%, negative = inhibition) at 10uM [%]"
1,CCC/C=N/NC(=O)c1cccc(Br)c1,0.11
2,CC(=O)NNc1cccc(Cl)n1,-9.49
3,O=S(=O)(NCCc1csc(-c2ccccc2)n1)c1cccnc1,8.48
4,COc1ccc(Cl)cc1S(=O)(=O)Nc1ncn[nH]1,12.9
5,CC1(C)CC(=O)c2cc(OCC(=O)NCCCN3CCN(c4ccc(F)cc4)CC3)ccc2O1,-72.9
6,O=C(O)c1ccccc1C(=O)N1N=C(c2ccccc2)CC1c1ccccc1O (centres unmarked),6.81
7,CC(=O)c1cc(-c2ccccc2)n(CCC(=O)NC2CCCCCC2)c1C,-11.7
8,CCOC(=O)C1=C(c2ccccc2)NC(=O)NC1c1cccc(OC)c1OC (centres unmarked),8.47
9,COc1ccc(Cl)cc1NC(=O)NC1CCCCC1,10.3
10,Cc1ccc(NS(=O)(=O)c2ccc(C(=O)NCc3ccccn3)cc2)cc1,18.8
11,C=CCOC(=O)C1=C(C)OC(N)=C(C#N)C1c1ccc(F)cc1 (centres unmarked),4.61
12,COc1ccc(C2/C(=C(/O)c3ccccc3)C(=O)C(=O)N2CCN2CCOCC2)c(OC)c1 (centres unmarked),-11
13,O=C(Nc1ccc(Cl)c(Cl)c1)Nc1nnc(CC2=CCCCC2)s1,24.6
14,Cn1nnc(NC(=O)c2cccc([N+](=O)[O-])c2)n1,0.388
15,O=C(Nc1ncc2c(n1)-c1ccccc1OC2)c1ccc(F)cc1,-19.1
16,COc1cccc(CNC(=O)c2ccccc2C(=O)NC(C)(C)C(=O)NCc2cccc(OC)c2)c1,-3.27
17,Cc1ccc(-n2ncc3c(=O)n(CC(=O)N4CCN(C(=O)c5ccco5)CC4)cnc32)cc1,-33.4
18,O=C(Cc1ccc(Cl)cc1)N1CCC2(CC1)NCCc1[nH]cnc12,7.89
19,O=C(O)CCn1cc(/C=C2/NC(=S)N(c3ccccc3)C2=O)c(-c2ccccc2)n1,17.3

row,Structure (SMILES),"hERG current change (%, negative = inhibition) at 10uM [%]"
1,CCC(=O)Oc1cccc(C(=O)Nc2cccc(NC(=O)c3ccco3)c2)c1,-1.06
2,C=C1CCN([C@@H](Cc2ccccc2)C(=O)NCc2ccc(Cl)cc2)S(=O)(=O)c2ccccc21,1.34
3,Cn1c(SCC(=O)NCCc2ccccc2)nnc1-c1ccncc1,7.6
4,Cc1nc(NC(=O)c2ccccc2)sc1-c1csc(N)n1,-5.17
5,FC(F)(F)c1cccc(NC(=S)NC(c2ccccc2)c2ccccc2)c1,4.53
6,Cn1ccnc1SCC(=O)Nc1cc(F)ccc1F,11.3
7,CC1=CC(=C(C#N)c2nc3ccccc3s2)C=C(C)N1c1ccc(F)cc1,3.76
8,CCOc1nc(Nc2ccccc2F)nc(OCC)n1,-9.55
9,Cc1onc(-c2ccccc2)c1C(=O)NC(=S)Nc1sc2c(c1C#N)CCCC2,26.3
10,CCC(=O)Nc1ccc(C(=O)CN2C(=O)NC3(CCCCCC3)C2=O)cc1,4.45
11,COc1ccc(C(=O)CC(=O)C(=O)Nc2cc(Cl)c(OC)cc2OC)cc1,3.85
12,Cc1cccc(N2CCN(S(=O)(=O)c3c(C)nc4scc(C)n4c3=O)CC2C)c1 (centres unmarked),-37
13,C=CCn1c(C)cc(C(=O)COC(=O)C2CC(=O)N(Cc3ccccc3)C2)c1C (centres unmarked),-18.8
14,CC(=O)NC(CCCNC(=S)NC1CCCCC1)C(=O)O (centres unmarked),29.1
15,Cn1c(=O)c(C(=O)CN2CCN(Cc3ccc4c(c3)OCO4)CC2)c(N)n(Cc2ccccc2)c1=O,-66.8
16,Nc1cc(OC(=O)c2cccs2)nn1S(=O)(=O)c1ccccc1,24.2
17,CCOC(=O)N1CCN(C(=O)CCNS(=O)(=O)c2ccc(C)c(C)c2)CC1,-4.15
18,O=C(NCc1ccccc1)C(Cc1ccccc1)N1C(=O)C2C3CCC(C3)C2C1=O (centres unmarked),-6.78
